# The supplement of paper PMC11417369
# ± gives the standard deviation of the averaged measurements. This is one part of the list.
# Test system: PfAP2-LT AP2 domain (GST-tagged)
# Test: gcPBM binding intensity (ln(normalized median fluorescence intensity)); higher = stronger DNA binding
# In short: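 An Agilent 4 × 180k array of primer-extended double-stranded 36-bp intergenic genomic probes, with negative controls, was incubated for 1 h with GST-tagged P. falciparum DNA-binding domains expressed in E. coli. Alexa488 anti-GST antibody detected bound protein, scanned at 488 nm. Binding intensity is the highest Masliner-normalised natural-log median intensity across replicate spots of either probe orientation.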
row,Sequence,gcPBM binding intensity (ln)
1,CGGATGAATATATATGCACACATCTTTTGTAAAAAT [CACACA_site3190],9.15 ± 0.42
2,TATATATATATATATTGTACATTTACCAAATTGTGT [XGTACX_site5791],9.39 ± 0.4
3,AATGTGCTCGCTATTACACACTCATTGGGATAAACT [CACACA_site7043],8.98 ± 0.41
4,ATATAATATATATATTGTACATATATTTATAAGCAT [XGTACX_site3726],8.77 ± 0.35
5,TTTTTTTTTTTTTGCACACTTAAATTTGGAGTGTAG [CACACA_site2345],8.81 ± 0.45
6,TATATAAATAAATATACACACATATATAAATATACA [CACACA_site2982],8.96 ± 0.4
7,TTTAATAATAATACTAGTACACATTCTTTATTATTT [XGTACX_site2671],8.79 ± 0.52
8,TGAATTAAGATTTATTGTACATAATTTATACCATAT [XGTACX_site7034],8.71 ± 0.45
9,TAAATTTATAGACACACACACATATAAATAAATATA [CACACA_site6530],9.71 ± 0.22
10,AATATCTTAGTGGATACACACATATAAATGTGGATT [CACACA_site485],8.88 ± 0.39
11,AAGATTTTCCTTGATAGTACACTTATGAAAATTTGT [XGTACX_site3047],8.68 ± 0.38
12,ATATATTACGACTTCTGTACATAATATATAAAAGAA [XGTACX_site2353],8.76 ± 0.42
13,TTTTTTTTTTTTTTTTTTTTTTTGTCTTATTTTTTT [GTGCAC_negctrl_site338],8.37 ± 0.6
14,AAAGTAAAAAATCATAGTACACATTTAAATATATAT [XGTACX_site2323],8.9 ± 0.56
15,TAATATATCAAATGAAGTACTCACATATACATAATA [XGTACX_site6051],8.76 ± 0.36
16,TTTTTTAAATTATGTAGTACGATTCATTTTTTATAA [XGTACX_site1101],8.46 ± 0.47
17,GGTATATATTTATAATGTACATATTCATATATATAA [XGTACX_site3291],8.57 ± 0.35
18,CATCATCTTTTAAAGGTGCATAATAATATTGTTAAT,8.57 ± 0.42
19,ATGTTCTTTAAAACCACACACCCCCCAACCCCCCTC [CACACA_site2373],10.1 ± 0.13
20,GTCTATTATTTTTGAAGTACAAAAATTTTAGTTAAA [XGTACX_site4708],8.44 ± 0.43
21,AATATATTTAATCATACACACATTTATGTACCTATA [CACACA_site1718],9.11 ± 0.41
22,TCGCCCTACAATTTGTTTATATATTAAATAAAATTT [CACACA_negctrl_site883],8.57 ± 0.51

row,Sequence,gcPBM binding intensity (ln)
1,TGAAATTCCATAAAATGTACATATTAGTTTAATTCA [XGTACX_site4031],8.38 ± 0.43
2,TTACAACATGAAAATGTGCACATATATATATATATA,9.89 ± 0.057
3,AAAAATAAATATATATGTACACATATGTATACAATA [XGTACX_site4692],8.84 ± 0.4
4,GAAATAAATATAATATATATATATATATATATATGT [TGCATGCA_negctrl_site216],9.06 ± 0.28
5,GGTATACACAGACATGCATGTAATTATATATAGGGA [TGCATGCA_site83],9.37 ± 0.54
6,ATATAAATATATTGCACACACAATTATTATTATTAT [CACACA_site7147],9.24 ± 0.31
7,AAGGATGATACAACTTGTACATATTTGCTTAATATA [XGTACX_site764],8.79 ± 0.53
8,CATGTGCATATTAAATGTACATATATACATATATAC [XGTACX_site857],8.96 ± 0.29
9,ATATAGGTATTTAATACACACAAAACTTTCATTCCA [CACACA_site7627],8.91 ± 0.41
10,AAAGCTAATATTATATGTACTTATATATTTATATAT [XGTACX_site4474],8.81 ± 0.42
11,AAATAAATGAAACACACACACACAAAAAAAAAAAAC [CACACA_site2625],10.2 ± 0.28
12,ATATAAATCTACACCGCACACAAAAACAACAAATAT [CACACA_site2506],9.53 ± 0.3
13,TATAATGTTAAATAATGTACATATTTTTTTTTTTTT [XGTACX_site4721],8.45 ± 0.38
14,AACAAATTTTTTTTTCCTTTTTTTTTTTTACTTCAT [CACACA_negctrl_site1214],8.52 ± 0.61
15,ATAAACAAAGTTAAATGTACAAAGGGGTAAAAAAAA [XGTACX_site83],8.91 ± 0.57
16,ACACAATTGAAATAGTGTACAAAATGTTGTTACATA [XGTACX_site8671],8.99 ± 0.52
17,TTTTTTTTTCGGAAAAGTACAAAACTTTTTTATAAT [XGTACX_site4670],8.13 ± 0.35
18,AAATAAATAATATGTAAACACACAAAAAATAAAAAT [CACACA_site8307],9.24 ± 0.52
19,TTATTAACCAAACGCACATGCAAAATATATTATATA [TGCATGCA_site915],8.71 ± 0.45
20,AGACTTTGTACAAACACACACATGAGCACAATATTA [CACACA_site6755],9.41 ± 0.36
21,TAAAAAGTATATAAGAGTACACATATTTATAAATAT [XGTACX_site3084],8.79 ± 0.45
22,TATATATCAATATGCACACACAAGAAGTAATTATAA [CACACA_site7487],9.39 ± 0.38

row,Sequence,gcPBM binding intensity (ln)
1,AACAAAATTGAAGGAACACACATACAGATATATATA [CACACA_site4264],9.22 ± 0.4
2,ATAGAAAAAATATACACACACTTATTAAATAAAAAT [CACACA_site7540],9.26 ± 0.37
3,TAATAATTAATTAATATAATATTTTTTCATAATTAT [XGTACX_negctrl_site602],8.4 ± 0.39
4,GTTTTTAAGAAAAACACACACTCCTGTTATTTTATA [CACACA_site3696],8.85 ± 0.42
5,TTTTTTTTTTTCGGGGGTACTAATATATTATTAATA [XGTACX_site7809],9.37 ± 0.11
6,ATATATATAACATATACACACGTTCATATATATATA [CACACA_site4416],9.05 ± 0.3
7,TTACAAGTAAAAGGTACACACATTATATATACAAAT [CACACA_site8290],9.16 ± 0.44
8,TAATTTTTATTTTATTTTATTTTTTTTTTTTTTATT [CACACA_negctrl_site1671],8.36 ± 0.61
9,TCACATGGAAAAAAGTGTACATAATTATGTATAAAT [XGTACX_site2827],8.97 ± 0.38
10,TATAAAAAATAAAAAGTTTAATGAATATTTCTTTTA [TGCATGCA_negctrl_site379],8.11 ± 0.66
11,AATACAATTTCTAGCACACAAAATATTATTATAATT [CACACA_site3223],8.86 ± 0.45
12,AAAAAAAAAAAAATCACACACAATATGAATTTATAG [CACACA_site601],8.97 ± 0.46
13,TATAGAAGCGTTCACACACACACATACATACCCATA [CACACA_site4915],9.9 ± 0.43
14,AAAAAACAATCTCATACACACTAGGGATTAATTATT [CACACA_site5051],8.89 ± 0.41
15,TCCCTAAAAAATGATAAATGGAGACAATTCCGACAA [GTGCAC_negctrl_site209],8.62 ± 0.28
16,TTATATATATTTAAATTTTATCTCACATATATATAT [TGCATGCA_negctrl_site275],8.89 ± 0.43
17,ATGGATAACAATATGTGTACACATTTATATCTCCAC [XGTACX_site5457],9.12 ± 0.31
18,AAGCATGGATATTTTACACACATTTCCACGTAACAA [CACACA_site3141],9.08 ± 0.27
19,ATACATTTTTTTTATACGCACACGTCATACTTTTAA [CACACA_site1638],9.35 ± 0.49
20,ATATAATAGAAGTGTACACACATATTTATGTCTGTA [CACACA_site3121],9.15 ± 0.36
21,ACAAGACAGATATATACACACATACATACATACATA [CACACA_site7472],9.43 ± 0.37
22,ATATTTATTTATATTACACACATGTGCAATTAAACT [CACACA_site6928],9.28 ± 0.47

row,Sequence,gcPBM binding intensity (ln)
1,TTTAACTTATTCAATGCACACATTTTAATAAGATAT [CACACA_site1967],8.76 ± 0.3
2,TTTCTTAAAAAAAAAAAAAAAAGAAGATAAATAAAA [CACACA_negctrl_site289],8.05 ± 0.6
3,CTAGCAAATACATACACACACACACCGATACATATA [CACACA_site9164],9.87 ± 0.21
4,ACATAATATATATATTAACACACATCCTTTTATGTA [CACACA_site8317],9.06 ± 0.4
5,TGACTTTGTTGAATTTGTCCTCTTAACTCATAATAT [GTGCAC_negctrl_site217],8.54 ± 0.53
6,TTCTGTGTCTAAAAATGTACGGGAATATATAAAAGT [XGTACX_site2090],8.72 ± 0.43
7,TTTTTTTTTTTTAAATGTACTTATCAACTTTTATAT [XGTACX_site4641],8.6 ± 0.45
8,TTATTTTGTTTATTATGTACACAAAGACATAATAAT [XGTACX_site5648],8.41 ± 0.38
9,CACTTACATAATTATTGTACAGATATTATCAAATAA [XGTACX_site567],8.54 ± 0.37
10,ACTTATATTATAAATTGTACAAATATTATATTTGGT [XGTACX_site1424],8.83 ± 0.47
11,AATATATGTAAATGGACACACACATATATATATATA [CACACA_site9220],9.92 ± 0.014
12,AATAAAATAATCCAAGTGCATATGTAAAAATACATT [GTGCAC_site9576],8.81 ± 0.43
13,TACGTAAAAATAATACGTACATATATTTATAGAAAA [XGTACX_site4959],8.62 ± 0.45
14,ACGGACAATACGGAAACACACAAGTTATTTTATCAT [CACACA_site7310],9.04 ± 0.56
15,AAAAAAAAAAGACACACACACACACGCATATACATA [CACACA_site7289],10.18 ± 0.05
16,GAAATACCGGAAAGCAAACACACATTTTAAAACCAT [CACACA_site3861],9.26 ± 0.52
17,ATATTTTTTGGAAAGTGTACAATATTATATATTAAA [XGTACX_site2163],8.35 ± 0.48
18,AACCATGTTAACAATGCATGCATCACTATATAAACG [TGCATGCA_site421],9.12 ± 0.38
19,ATACATATATATAGGTGTACATATAATATATATATA [XGTACX_site2228],9.01 ± 0.39
20,TTTAATTTTACATGAGAAACATATTACAATAAAATA [GTGCAC_negctrl_site606],8.2 ± 0.37
21,CATATAAAAAAATAGACACACATTTTATATAATACG [CACACA_site1896],8.91 ± 0.44
22,TCAAGTATTAAAATGGGTACATAAATATGTGTATAT [XGTACX_site5884],8.79 ± 0.47
